Results on 35 targets are retold here after the supplement of paper PMC12067093, “Discovery and optimisation of a covalent ligand for TRIM25 and its application to targeted protein ubiquitination” (Chemical Science, 2025).

Compound in the test: Cc1cc(ccc1-c1ccccc1)C(=O)N1CCCN(CC1)C(=O)CCl [compound 10]
In words: probe-labelled cysteine peptide fold change vs DMSO (competition) (log2 fold change); higher = less target engagement (more negative = stronger competition). As to conditions: THP-1, incubation time: 4 h.

Targets with the largest changes are over-represented here; the source holds about 21,000 in all.
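Also: competitive profiling in live THP-1 cells: cysteine peptides tagged with an iodoacetamide desthiobiotin (IA-DTB) probe, intensity after compound treatment relative to DMSO-treated cells.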

For “HSPA4_P34932_245_KFDEVLVNHFCEEFGKK (UniProt P34932)”, the “probe-labelled cysteine peptide fold change” value reads like this: (10 µM) -0.138; (50 µM) -0.572.

As to “ITGB2_P05107_590_RVECSGR (UniProt P05107)”, the “probe-labelled cysteine peptide fold change” value runs as follows: (10 µM) 0.176; (50 µM) 0.172.

Turning to “HNRNPK_P61978_145_GSDFDCELR (UniProt P61978)”, the “probe-labelled cysteine peptide fold change” value runs as follows: (10 µM) -0.0741; (50 µM) 0.0912.

Regarding “KIF4A_O95239_977_EVCEQNQQLLR (UniProt O95239)”, the “probe-labelled cysteine peptide fold change” value is, setting by setting: (10 µM) 0.177; (50 µM) 0.268.

For “IQGAP2_Q13576_1183_EACNVPEPEEK (UniProt Q13576)”, the “probe-labelled cysteine peptide fold change” value (10 µM) was 0.136 and the “probe-labelled cysteine peptide fold change” value (50 µM) was found to be 0.212.

For the target “INPPL1_O15357_926_KPAFTEASCPLSR (UniProt O15357)”, the “probe-labelled cysteine peptide fold change” value (10 µM) was -0.388 and the “probe-labelled cysteine peptide fold change” value (50 µM) was -1.32.

On to “IFRD2_Q12894_409_AVLHSVEGGECEEEIVR (UniProt Q12894)”, for which the “probe-labelled cysteine peptide fold change” value (10 µM) was 0.157 and the “probe-labelled cysteine peptide fold change” value (50 µM) worked out at 0.456.

As for “IGFBP2_P18065_227_TPCQQELDQVLER (UniProt P18065)”, the “probe-labelled cysteine peptide fold change” value is -0.19 (10 µM) and -0.277 (50 µM).

With “KAT8_Q9H7Z6_416_GQHVICVTPK (UniProt Q9H7Z6)”, the “probe-labelled cysteine peptide fold change” value turned out to be 0.233 (10 µM) and 0.0955 (50 µM).

For “KLHL6_Q8WZ60_252_LCLLPYVLENVR (UniProt Q8WZ60)”, the “probe-labelled cysteine peptide fold change” value worked out at 0.216 (10 µM) and 0.0667 (50 µM).

“HSPBP1_Q9NZL4_310_ECREPELGLEELLR (UniProt Q9NZL4)”: the “probe-labelled cysteine peptide fold change” value is, setting by setting: (10 µM) -0.105; (50 µM) 0.0852.

With “HSPA2_P54652_606_VCNPIISK (UniProt P54652)”, the “probe-labelled cysteine peptide fold change” value reads like this: (10 µM) 0.0869; (50 µM) -0.0291.

Turning to “KIF5B_P33176_65_VFQSSTSQEQVYNDCAK (UniProt P33176)”, the “probe-labelled cysteine peptide fold change” value (10 µM) was -0.0182 and the “probe-labelled cysteine peptide fold change” value (50 µM) worked out at 0.0429.

On to “HPS1_Q92902_180_LIHPQLCELCIEALER (UniProt Q92902)”, for which the “probe-labelled cysteine peptide fold change” value by setting is: (10 µM) 0.00119; (50 µM) -0.104.

With “HUWE1_Q7Z6Z7_2106_EDCSVLAFVLDHLLPHTQNAEDKDTPALAR (UniProt Q7Z6Z7)”, the “probe-labelled cysteine peptide fold change” value (10 µM) turned out to be 0.166 and the “probe-labelled cysteine peptide fold change” value (50 µM) amounted to 0.176.

As for “LACTB_P83111_154_EVWSEGLGYADVENRVPCKPETVMR (UniProt P83111)”, the “probe-labelled cysteine peptide fold change” value runs as follows: (10 µM) 0.129; (50 µM) 0.0699.

As for “HMOX2_P30519_282_GALEGSSCPFR (UniProt P30519)”, the “probe-labelled cysteine peptide fold change” value reads like this: (10 µM) -2.29; (50 µM) -1.83.

Consider “KEAP1_Q14145_319_IFEELTLHKPTQVMPCR (UniProt Q14145)”, for which the “probe-labelled cysteine peptide fold change” value was -0.0511 (10 µM) and -1.48 (50 µM).

As for “HSPA9_P38646_608_VEAVNMAEGIIHDTETKMEEFKDQLPADECNK (UniProt P38646)”, the “probe-labelled cysteine peptide fold change” value is -0.551 (10 µM) and -1.79 (50 µM).

On to “KIF2C_Q99661_154_QFSVPPAPTRPSCPAVAEIPLR (UniProt Q99661)”, for which the “probe-labelled cysteine peptide fold change” value (10 µM) is -0.256 and the “probe-labelled cysteine peptide fold change” value (50 µM) is -0.0382.

“KNL1_Q8NG31_638_SSSDECEEITK (UniProt Q8NG31)”: the “probe-labelled cysteine peptide fold change” value was -0.158 (10 µM) and -0.325 (50 µM).

Turning to “IDH2_P48735_402_VCVETVESGAMTK (UniProt P48735)”, the “probe-labelled cysteine peptide fold change” value by setting is: (10 µM) 0.209; (50 µM) 0.00225.

As for “INTS13_Q9NVM9_120_ADPECCSILHGLVAAVETLCK (UniProt Q9NVM9)”, the “probe-labelled cysteine peptide fold change” value by setting is: (10 µM) -0.109; (50 µM) -0.319.

As to “IDUA_P35475_481_YLDNGLCSPDGEWR (UniProt P35475)”, the “probe-labelled cysteine peptide fold change” value by setting is: (10 µM) -0.0927; (50 µM) 0.123.

Take “INCENP_Q9NQS7_355_IICHSYLER (UniProt Q9NQS7)”: the “probe-labelled cysteine peptide fold change” value is, setting by setting: (10 µM) 0.105; (50 µM) -0.0799.

In the case of “HUWE1_Q7Z6Z7_3658_AQCETLSPDGLPEEQPQTTK (UniProt Q7Z6Z7)”, the “probe-labelled cysteine peptide fold change” value reads like this: (10 µM) -0.312; (50 µM) -0.32.

For the target “LAMTOR2_Q9Y2Q5_76_FILMDCMEGR (UniProt Q9Y2Q5)”, the “probe-labelled cysteine peptide fold change” value by setting is: (10 µM) -0.0538; (50 µM) 0.143.

Regarding “HNRNPU_Q00839_607_KAVVVCPKDEDYK (UniProt Q00839)”, the “probe-labelled cysteine peptide fold change” value was -0.249 (10 µM) and -0.901 (50 µM).

As for “IARS2_Q9NSE4_414_GTGLVHTAPAHGMEDYGVASQHNLPMDCLVDEDGVFTDVAGPELQNK (UniProt Q9NSE4)”, the “probe-labelled cysteine peptide fold change” value is, setting by setting: (10 µM) -0.227; (50 µM) -0.124.

Regarding “KHNYN_O15037_221_SSALLGAQCQGVR (UniProt O15037)”, the “probe-labelled cysteine peptide fold change” value reads like this: (10 µM) -0.233; (50 µM) -0.449.

For the target “INTS14_Q96SY0_193_LIDLNNGEGQIFTIDGPLCLK (UniProt Q96SY0)”, the “probe-labelled cysteine peptide fold change” value came to 0.0903 (10 µM) and 0.0906 (50 µM).

Turning to “ILVBL_A1L0T0_608_VLHDAQQQCR (UniProt A1L0T0)”, the “probe-labelled cysteine peptide fold change” value reads like this: (10 µM) 0.0577; (50 µM) 0.154.

Regarding “IMPA2_O14732_90+107_CVLTHSPTWIIDPIDGTCNFVHR (UniProt O14732)”, the “probe-labelled cysteine peptide fold change” value by setting is: (10 µM) -0.0214; (50 µM) -0.184.

With “INTS13_Q9NVM9_119_ADPECCSILHGLVAAVETLCK (UniProt Q9NVM9)”, the “probe-labelled cysteine peptide fold change” value is 0.134 (10 µM) and -0.319 (50 µM).

On to “ITPR2_Q14571_1299_VVQHFVHCIETHGR<|>ITPR1_Q14643_1308_VVQHFVHCIETHGR (UniProt Q14643+Q14571)”, for which the “probe-labelled cysteine peptide fold change” value came to 0.327 (10 µM) and 0.26 (50 µM).
